The text below walks through data of article PMC12820563, “FoxP3 forms a head-to-head dimer in vivo and stabilizes its multimerization on adjacent microsatellites”.

This is one part of the list.

This test deals with T1, MBP-FoxP1dN (Mus musculus, UniProt P58462 326-579).
T1 sequence: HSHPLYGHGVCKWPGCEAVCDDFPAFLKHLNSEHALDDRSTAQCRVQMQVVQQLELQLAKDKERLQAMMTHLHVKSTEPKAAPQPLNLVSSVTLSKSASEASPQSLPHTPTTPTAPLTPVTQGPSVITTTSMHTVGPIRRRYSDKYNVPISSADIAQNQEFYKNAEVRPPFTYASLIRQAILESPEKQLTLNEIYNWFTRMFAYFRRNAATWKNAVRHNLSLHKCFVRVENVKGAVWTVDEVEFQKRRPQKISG
Briefly: PD-seq (MBP pull-down with sequencing); 20 mM Tris-HCl pH 7.5, 100 mM NaCl, 1.5 mM MgCl2, 0.4 uM protein, 0.1 uM dsDNA library, 30 min, room temperature, amylose pull-down; high values mean tight binding. To be noted: protein: recombinant; tags: His6-MBP; chain copies: 2; dsDNA, one strand shown. The method, boiled down:
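Binding is the reads-per-million enrichment of pull-down relative to input, pooled across replicates. For this, 0.4 µM His6-MBP-tagged mouse FoxP3 or FoxP1 fragment lacking the N-terminus, made in E. coli, was incubated with 0.1 µM Klenow-filled double-stranded degenerate DNA library for 30 min at room temperature in Tris pH 7.5 buffer with NaCl and MgCl2. Complexes bound to amylose resin were washed three times before proteinase K released the DNA for PCR barcoding and Illumina sequencing.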
Turning to “GATGATTGTTCTCCCAGCTGATGAATTTGAACATTCGAGTAAACAAATTTTCCTAATCTTTCTGTTCAAGCGCCATCTAC”, the binding signal was 0.931 RPM ratio (pull-down/input). Turning to “GATGATTGTTCTCCCAGCTGATGAATTGTTCCCATCGAGTAAACAAATTTTCCTAATCTTTCTGTTCAAGCGCCATCTAC”, the binding signal was 1.05 RPM ratio (pull-down/input). For “GATGATTGTTCTCCCAGCTGATGAATTCCACGCATCGAGTAAACAAATTTTCCTAATCTTTCTGTTCAAGCGCCATCTAC”, the binding signal was 1.12 RPM ratio (pull-down/input). As for “GATGATTGTTCTCCCAGCTGATGAATTTTTCGACTCGAGTAAACAAATTTTCCTAATCTTTCTGTTCAAGCGCCATCTAC”, the binding signal was 0.872 RPM ratio (pull-down/input). In the case of “GATGATTGTTCTCCCAGCTGATGAATTGCGGAGATCGAGTAAACAAATTTTCCTAATCTTTCTGTTCAAGCGCCATCTAC” it was 1.02 RPM ratio (pull-down/input). In the case of “GATGATTGTTCTCCCAGCTGATGAATTACTTGTGTCGAGTAAACAAATTTTCCTAATCTTTCTGTTCAAGCGCCATCTAC” it was 1.24 RPM ratio (pull-down/input); in that of “GATGATTGTTCTCCCAGCTGATGAATTAGCAACGTCGAGTAAACAAATTTTCCTAATCTTTCTGTTCAAGCGCCATCTAC”, 1.08 RPM ratio (pull-down/input). With “GATGATTGTTCTCCCAGCTGATGAATTAGCTTTGTCGAGTAAACAAATTTTCCTAATCTTTCTGTTCAAGCGCCATCTAC”, the binding signal was 0.873 RPM ratio (pull-down/input). Under “GATGATTGTTCTCCCAGCTGATGAATTAGATGAGTCGAGTAAACAAATTTTCCTAATCTTTCTGTTCAAGCGCCATCTAC” stands 0.917 RPM ratio (pull-down/input); under “GATGATTGTTCTCCCAGCTGATGAATTCGTGTAGTCGAGTAAACAAATTTTCCTAATCTTTCTGTTCAAGCGCCATCTAC”, 0.961 RPM ratio (pull-down/input). For “GATGATTGTTCTCCCAGCTGATGAATTGGCTAACTCGAGTAAACAAATTTTCCTAATCTTTCTGTTCAAGCGCCATCTAC”, the binding signal was 0.84 RPM ratio (pull-down/input).

Turning to “GATGATTGTTCTCCCAGCTGATGAATTGAACCGGTCGAGTAAACAAATTTTCCTAATCTTTCTGTTCAAGCGCCATCTAC”, the binding signal was 0.755 RPM ratio (pull-down/input).

For “GATGATTGTTCTCCCAGCTGATGAATTGCGAGGTTCGAGTAAACAAATTTTCCTAATCTTTCTGTTCAAGCGCCATCTAC”, the binding signal is 0.945 RPM ratio (pull-down/input). Under “GATGATTGTTCTCCCAGCTGATGAATTGCTGAGCTCGAGTAAACAAATTTTCCTAATCTTTCTGTTCAAGCGCCATCTAC” stands 0.845 RPM ratio (pull-down/input); under “GATGATTGTTCTCCCAGCTGATGAATTTTAGGATTCGAGTAAACAAATTTTCCTAATCTTTCTGTTCAAGCGCCATCTAC”, 0.868 RPM ratio (pull-down/input). Consider “GATGATTGTTCTCCCAGCTGATGAATTTTTTATATCGAGTAAACAAATTTTCCTAATCTTTCTGTTCAAGCGCCATCTAC”, for which the binding signal is 1.08 RPM ratio (pull-down/input).

Regarding “GATGATTGTTCTCCCAGCTGATGAATTATATATTTCGAGTAAACAAATTTTCCTAATCTTTCTGTTCAAGCGCCATCTAC”, the binding signal is 1.06 RPM ratio (pull-down/input).

For the sequence “GATGATTGTTCTCCCAGCTGATGAATTACTACACTCGAGTAAACAAATTTTCCTAATCTTTCTGTTCAAGCGCCATCTAC”, the binding signal was 1.16 RPM ratio (pull-down/input). “GATGATTGTTCTCCCAGCTGATGAATTACTAACTTCGAGTAAACAAATTTTCCTAATCTTTCTGTTCAAGCGCCATCTAC”: the binding signal was 1.21 RPM ratio (pull-down/input). On to “GATGATTGTTCTCCCAGCTGATGAATTACTACCGTCGAGTAAACAAATTTTCCTAATCTTTCTGTTCAAGCGCCATCTAC”, for which the binding signal was 0.989 RPM ratio (pull-down/input).

With “GATGATTGTTCTCCCAGCTGATGAATTTAACACCTCGAGTAAACAAATTTTCCTAATCTTTCTGTTCAAGCGCCATCTAC”, the binding signal is 0.824 RPM ratio (pull-down/input). In the case of “GATGATTGTTCTCCCAGCTGATGAATTATGAAGGTCGAGTAAACAAATTTTCCTAATCTTTCTGTTCAAGCGCCATCTAC” it was 0.831 RPM ratio (pull-down/input). Under “GATGATTGTTCTCCCAGCTGATGAATTTCGTCGCTCGAGTAAACAAATTTTCCTAATCTTTCTGTTCAAGCGCCATCTAC” stands 0.845 RPM ratio (pull-down/input); under “GATGATTGTTCTCCCAGCTGATGAATTGCTACGCTCGAGTAAACAAATTTTCCTAATCTTTCTGTTCAAGCGCCATCTAC”, 0.952 RPM ratio (pull-down/input); under “GATGATTGTTCTCCCAGCTGATGAATTATAACCGTCGAGTAAACAAATTTTCCTAATCTTTCTGTTCAAGCGCCATCTAC”, 1.01 RPM ratio (pull-down/input). In the case of “GATGATTGTTCTCCCAGCTGATGAATTTCGGTTATCGAGTAAACAAATTTTCCTAATCTTTCTGTTCAAGCGCCATCTAC” it was 0.974 RPM ratio (pull-down/input); in that of “GATGATTGTTCTCCCAGCTGATGAATTAACAACCTCGAGTAAACAAATTTTCCTAATCTTTCTGTTCAAGCGCCATCTAC”, 1.19 RPM ratio (pull-down/input). “GATGATTGTTCTCCCAGCTGATGAATTATCAGCTTCGAGTAAACAAATTTTCCTAATCTTTCTGTTCAAGCGCCATCTAC”: the binding signal is 1.02 RPM ratio (pull-down/input).

“GATGATTGTTCTCCCAGCTGATGAATTCCTCATATCGAGTAAACAAATTTTCCTAATCTTTCTGTTCAAGCGCCATCTAC”: the binding signal was 0.922 RPM ratio (pull-down/input). In the case of “GATGATTGTTCTCCCAGCTGATGAATTCCTATATTCGAGTAAACAAATTTTCCTAATCTTTCTGTTCAAGCGCCATCTAC”, the binding signal is 1.03 RPM ratio (pull-down/input). Under “GATGATTGTTCTCCCAGCTGATGAATTTCCGTATTCGAGTAAACAAATTTTCCTAATCTTTCTGTTCAAGCGCCATCTAC” stands 0.973 RPM ratio (pull-down/input).
